{"source": "the supplement of paper PMC8728848", "assay_in_all_cases": "glycan array binding signal (z-score within array); higher = stronger binding", "details_in_all_cases": "glycan notation: IUPAC condensed, linker removed", "key": {"[1]": {"target": "Neu5Ac(a2-8)Neu5Ac(a2-3)[GalNAc(b1-4)]Gal(b1-4)Glc", "procedure,_shortened": "(§1)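 Columns mapping to the same glycan were averaged after glycan names were converted to IUPAC-condensed notation. The data come from 3228 arrays in the Consortium for Functional Glycomics database, limited to those with an available protein sequence. Binding is reported as a within-array Z-score averaged across arrays of one protein sequence and across linkers.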"}, "[2]": {"target": "Neu5Ac(a2-8)Neu5Ac(a2-8)Neu5Ac", "procedure,_shortened": "as §1"}, "[3]": {"target": "Neu5Ac(a2-8)Neu5Ac(a2-8)Neu5Ac(a2-3)Gal(b1-4)Glc", "procedure,_shortened": "as §1"}, "[4]": {"target": "Neu5Ac(a2-8)Neu5Ac(a2-8)Neu5Ac(a2-3)[GalNAc(b1-4)]Gal(b1-4)Glc", "procedure,_shortened": "as §1"}, "[5]": {"target": "Neu5Ac(a2-8)Neu5Ac(a2-8)Neu5Ac(a2-8)Neu5Ac(a2-3)[GalNAc(b1-4)]Gal(b1-4)Glc", "procedure,_shortened": "as §1"}, "Neu5Ac(b1-6)GalNAc": {"target": "Neu5Ac(b1-6)GalNAc", "procedure,_shortened": "as §1"}, "[6]": {"target": "Neu5Ac(b2-6)Gal(b1-4)GlcNAc", "procedure,_shortened": "as §1"}, "[7]": {"target": "Neu5Ac9Ac(a2-6)Gal(b1-4)GlcNAc", "procedure,_shortened": "as §1"}, "[8]": {"target": "Neu5Gc(a2-3)Gal(b1-3)GlcNAc", "procedure,_shortened": "as §1"}, "[9]": {"target": "Neu5Gc(a2-3)Gal(b1-3)[Fuc(a1-4)]GlcNAc", "procedure,_shortened": "as §1"}, "Neu5Gc(a2-3)Gal(b1-4)Glc": {"target": "Neu5Gc(a2-3)Gal(b1-4)Glc", "procedure,_shortened": "as §1"}, "[10]": {"target": "Neu5Gc(a2-3)Gal(b1-4)GlcNAc", "procedure,_shortened": "as §1"}, "[11]": {"target": "Neu5Gc(a2-3)Gal(b1-4)[Fuc(a1-3)]GlcNAc", "procedure,_shortened": "as §1"}, "[12]": {"target": "Neu5Gc(a2-6)Gal(b1-4)GlcNAc", "procedure,_shortened": "as §1"}, "Neu5Gc(a2-6)GalNAc": {"target": "Neu5Gc(a2-6)GalNAc", "procedure,_shortened": "as §1"}}, "note": "The other results are listed elsewhere or left out."}
{"binder": "F17bG (Escherichia coli), Q47200 (protein) MTNFYKVFLAVFILVCCNISHAVVSFIGSTENDVGPSQGSYSSTHAMDNLPFVYNTGYNIGYQNANVWRIGGGFCVGLDGKVDLPVVGSLDGQSIYGLTEEVGLLIWMGDTNYSRGTAMSGNSWENVFSGWCVGNYLSTQGLSVHVRPVILKRNSSAQYSVQKTSIGSIRMRPYNGSSAGSVQTTVNFSLNPFTLNDTVTSCRLLTPSAVNVSLAAISAGQLPSSGDEVVAGTTSLKLQCDAGVTVWATLTDATTPSNRSDILTLTGASTATGVGLRIYKNTDSTPLKFGPDSPVKGNENQWQLSTGTETSPSVRLYVKYVNTGEGINPGTVNGISTFTFSYQ", "values": [{"measurement": "glycan array binding signal (z-score)", "setting": "[1]", "result": -0.062}, {"measurement": "glycan array binding signal (z-score)", "setting": "[2]", "result": 0.166}, {"measurement": "glycan array binding signal (z-score)", "setting": "[3]", "result": -0.071}, {"measurement": "glycan array binding signal (z-score)", "setting": "[4]", "result": -0.072}, {"measurement": "glycan array binding signal (z-score)", "setting": "[5]", "result": -0.011}, {"measurement": "glycan array binding signal (z-score)", "setting": "Neu5Ac(b1-6)GalNAc", "result": -0.298}, {"measurement": "glycan array binding signal (z-score)", "setting": "[6]", "result": -0.406}, {"measurement": "glycan array binding signal (z-score)", "setting": "[7]", "result": -0.218}, {"measurement": "glycan array binding signal (z-score)", "setting": "[8]", "result": -0.204}, {"measurement": "glycan array binding signal (z-score)", "setting": "[9]", "result": -0.367}, {"measurement": "glycan array binding signal (z-score)", "setting": "Neu5Gc(a2-3)Gal(b1-4)Glc", "result": -0.464}, {"measurement": "glycan array binding signal (z-score)", "setting": "[10]", "result": -0.002}, {"measurement": "glycan array binding signal (z-score)", "setting": "[11]", "result": -0.362}, {"measurement": "glycan array binding signal (z-score)", "setting": "[12]", "result": -0.297}, {"measurement": "glycan array binding signal (z-score)", "setting": "Neu5Gc(a2-6)GalNAc", "result": -0.24}]}
